Results as given in the supplement of paper PMC12217912.
This is one part of the list. Sequences were assembled here from the parent chain. Inactive controls read about 0.05.

B1: TEV protease; numbered along this chain (parent)
chain: MGESLFKGPRDYNPISSSICHLTNESDGHTTSLYGIGFGPFIITNKHLFRRNNGTLVVQSLHGVFKVKDTTTLQQHLVDGRDMIIIRMPKDFPPFPQKLKFREPQREERICLVTTNFQTKSMSSMVSDTSCTFPSGDGIFWKHWIQTKDGQCGSPLVSTRDGFIVGIHSASNFTNTNNYFTSVPKNFMELLTNQEAQQWVSGWRLNADSVLWGGHKVFMVKPEEPFQPVKEATQL

Variants of: B1
Test: raw area under fraction-flipped curve 0-4 h after induction (AUC4h, not background-subtracted), DNA-recorder readout of cleavage of the substrate (dimensionless); higher = more cleavage of the substrate by the protease variant
Details: temperature: 34 °C; time window: 0-4 h after rhamnose induction
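Note: Bxb1 expression induced with 0.2% (w/v) L-rhamnose at OD600 near 0.5, cultures sampled hourly, flipped fraction per protease–substrate barcode pair counted by paired-end Illumina sequencing.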

M219N
area with substrate ECLYFQS: 0.0871
area with substrate EELYFQS: 0.112
area with substrate EILYFQS: 0.0661
area with substrate EKLYFQS: 0.122
area with substrate ELLYFQS: 0.0426
area with substrate ETLYFQS: 0.0814
area with substrate EVLYFQS: 0.0973

E224G
area with substrate ECLYFQS: 0.0912
area with substrate EDLYFQS: 0.14
area with substrate EGLYFQS: 0.103
area with substrate EILYFQS: 0.0975
area with substrate ELLYFQS: 0.0886
area with substrate EMLYFQS: 0.133
area with substrate EQLYFQS: 0.135
area with substrate ERLYFQS: 0.108
area with substrate ESLYFQS: 0.086
area with substrate ETLYFQS: 0.107

Q234Y
area with substrate ECLYFQS: 0.117
area with substrate EDLYFQS: 0.125
area with substrate EELYFQS: 0.0886
area with substrate EGLYFQS: 0.0843
area with substrate EILYFQS: 0.0838
area with substrate ELLYFQS: 0.0793
area with substrate EMLYFQS: 0.0929
area with substrate EPLYFQS: 0.116
area with substrate EQLYFQS: 0.111
area with substrate ERLYFQS: 0.0791
area with substrate ESLYFQS: 0.106
area with substrate ETLYFQS: 0.0958
area with substrate EVLYFQS: 0.0951

P228G
area with substrate ECLYFQS: 0.0844
area with substrate EELYFQS: 0.149
area with substrate EGLYFQS: 0.104
area with substrate EILYFQS: 0.104
area with substrate EKLYFQS: 0.105
area with substrate ELLYFQS: 0.105
area with substrate EMLYFQS: 0.0983
area with substrate EPLYFQS: 0.108
area with substrate ERLYFQS: 0.102
area with substrate ESLYFQS: 0.099
area with substrate EVLYFQS: 0.1
area with substrate EWLYFQS: 0.106

T233L
area with substrate ECLYFQS: 0.0915
area with substrate EDLYFQS: 0.125
area with substrate EHLYFQS: 0.0925
area with substrate EILYFQS: 0.0852
area with substrate ELLYFQS: 0.0931
area with substrate EMLYFQS: 0.114
area with substrate EPLYFQS: 0.113
area with substrate ERLYFQS: 0.0963
area with substrate ESLYFQS: 0.0926
area with substrate ETLYFQS: 0.0846
area with substrate EVLYFQS: 0.0748

D79P
area with substrate EDLYFQS: 0.0995
area with substrate EHLYFQS: 0.0924
area with substrate ERLYFQS: 0.121
area with substrate ESLYFQS: 0.0959
area with substrate EVLYFQS: 0.0965
area with substrate EWLYFQS: 0.1

K230Q
area with substrate ECLYFQS: 0.115
area with substrate EDLYFQS: 0.0887
area with substrate EELYFQS: 0.131
area with substrate EGLYFQS: 0.0942
area with substrate EHLYFQS: 0.112
area with substrate EILYFQS: 0.0741
area with substrate ELLYFQS: 0.0806
area with substrate EMLYFQS: 0.119
area with substrate EPLYFQS: 0.148
area with substrate EQLYFQS: 0.103
area with substrate ERLYFQS: 0.0948
area with substrate ESLYFQS: 0.0956
area with substrate EVLYFQS: 0.0974

K230H
area with substrate ECLYFQS: 0.112
area with substrate EDLYFQS: 0.0916
area with substrate EFLYFQS: 0.105
area with substrate EGLYFQS: 0.0937
area with substrate EHLYFQS: 0.0668
area with substrate EILYFQS: 0.12
area with substrate ELLYFQS: 0.0861
area with substrate EMLYFQS: 0.119
area with substrate EPLYFQS: 0.095
area with substrate ERLYFQS: 0.113
area with substrate ESLYFQS: 0.0998
area with substrate ETLYFQS: 0.136
area with substrate EVLYFQS: 0.103

K221W
area with substrate ECLYFQS: 0.0776
area with substrate EDLYFQS: 0.0831
area with substrate EILYFQS: 0.0832
area with substrate ELLYFQS: 0.0795
area with substrate EQLYFQS: 0.0734
area with substrate ERLYFQS: 0.0661
area with substrate ESLYFQS: 0.0757
area with substrate EVLYFQS: 0.0812

Q227C
area with substrate ECLYFQS: 0.109
area with substrate EDLYFQS: 0.12
area with substrate EHLYFQS: 0.0977
area with substrate EILYFQS: 0.0829
area with substrate EKLYFQS: 0.115
area with substrate ELLYFQS: 0.0805
area with substrate EPLYFQS: 0.113
area with substrate EQLYFQS: 0.115
area with substrate ESLYFQS: 0.0875
area with substrate EVLYFQS: 0.0868

V229T
area with substrate ECLYFQS: 0.0993
area with substrate EELYFQS: 0.112
area with substrate EILYFQS: 0.109
area with substrate ELLYFQS: 0.087
area with substrate EPLYFQS: 0.116
area with substrate ERLYFQS: 0.102
area with substrate ESLYFQS: 0.0871
area with substrate EWLYFQS: 0.078
area with substrate EYLYFQS: 0.109

V229S
area with substrate ECLYFQS: 0.0907
area with substrate EELYFQS: 0.137
area with substrate EILYFQS: 0.101
area with substrate ELLYFQS: 0.124
area with substrate EMLYFQS: 0.118
area with substrate EQLYFQS: 0.136
area with substrate ERLYFQS: 0.0828
area with substrate ESLYFQS: 0.1

E231F
area with substrate ECLYFQS: 0.0855
area with substrate EDLYFQS: 0.121
area with substrate EELYFQS: 0.0936
area with substrate EILYFQS: 0.063
area with substrate ELLYFQS: 0.0766
area with substrate EMLYFQS: 0.101
area with substrate ESLYFQS: 0.0904
area with substrate EVLYFQS: 0.0746
area with substrate EWLYFQS: 0.0889

E223S
area with substrate ECLYFQS: 0.112
area with substrate EDLYFQS: 0.104
area with substrate EELYFQS: 0.114
area with substrate EGLYFQS: 0.106
area with substrate EHLYFQS: 0.101
area with substrate EILYFQS: 0.0559
area with substrate EKLYFQS: 0.0855
area with substrate ELLYFQS: 0.121
area with substrate EMLYFQS: 0.151
area with substrate EQLYFQS: 0.109
area with substrate ERLYFQS: 0.0859
area with substrate ESLYFQS: 0.0925
area with substrate EWLYFQS: 0.0861

V217S
area with substrate ECLYFQS: 0.0584
area with substrate EFLYFQS: 0.0751
area with substrate EHLYFQS: 0.0524
area with substrate EILYFQS: 0.0466
area with substrate EKLYFQS: 0.053
area with substrate EMLYFQS: 0.0601
area with substrate EPLYFQS: 0.0893
area with substrate EQLYFQS: 0.0652
area with substrate ERLYFQS: 0.0556
area with substrate ESLYFQS: 0.0483
area with substrate EWLYFQS: 0.0661
area with substrate EYLYFQS: 0.0586

V217K
area with substrate ECLYFQS: 0.0618
area with substrate EDLYFQS: 0.0738
area with substrate EGLYFQS: 0.0699
area with substrate EHLYFQS: 0.0606
area with substrate EILYFQS: 0.0644
area with substrate EKLYFQS: 0.0623
area with substrate ESLYFQS: 0.0631
area with substrate ETLYFQS: 0.064
area with substrate EVLYFQS: 0.0617
area with substrate EYLYFQS: 0.0779

V217Y
area with substrate ECLYFQS: 0.0592
area with substrate EFLYFQS: 0.0576
area with substrate EGLYFQS: 0.0504
area with substrate EILYFQS: 0.0622
area with substrate ELLYFQS: 0.0615
area with substrate EMLYFQS: 0.0543
area with substrate EPLYFQS: 0.0567
area with substrate ERLYFQS: 0.07
area with substrate ESLYFQS: 0.0607
area with substrate EWLYFQS: 0.0565

P225G
area with substrate ECLYFQS: 0.126
area with substrate EDLYFQS: 0.0859
area with substrate EELYFQS: 0.0924
area with substrate EFLYFQS: 0.118
area with substrate EGLYFQS: 0.0857
area with substrate EHLYFQS: 0.104
area with substrate EILYFQS: 0.0916
area with substrate EKLYFQS: 0.105
area with substrate ELLYFQS: 0.0897
area with substrate EMLYFQS: 0.11
area with substrate EQLYFQS: 0.141
area with substrate ERLYFQS: 0.122
area with substrate ESLYFQS: 0.102
area with substrate ETLYFQS: 0.145
area with substrate EVLYFQS: 0.0963
area with substrate EWLYFQS: 0.0862

P225E
area with substrate ECLYFQS: 0.109
area with substrate EDLYFQS: 0.118
area with substrate EELYFQS: 0.141
area with substrate EFLYFQS: 0.0744
area with substrate EHLYFQS: 0.132
area with substrate EILYFQS: 0.129
area with substrate EKLYFQS: 0.101
area with substrate ELLYFQS: 0.124
area with substrate EQLYFQS: 0.176
area with substrate ETLYFQS: 0.11

P225H
area with substrate ECLYFQS: 0.0806
area with substrate EDLYFQS: 0.123
area with substrate EILYFQS: 0.095
area with substrate EPLYFQS: 0.0734
area with substrate EQLYFQS: 0.14
area with substrate ERLYFQS: 0.0839
area with substrate ESLYFQS: 0.141
area with substrate ETLYFQS: 0.127
area with substrate EVLYFQS: 0.0875
area with substrate EWLYFQS: 0.0633
area with substrate EYLYFQS: 0.0765

P225M
area with substrate ECLYFQS: 0.0883
area with substrate EDLYFQS: 0.0948
area with substrate EELYFQS: 0.0903
area with substrate EGLYFQS: 0.0999
area with substrate EHLYFQS: 0.0908
area with substrate EILYFQS: 0.0795
area with substrate ELLYFQS: 0.0869
area with substrate EMLYFQS: 0.106
area with substrate EPLYFQS: 0.107
area with substrate EQLYFQS: 0.112
area with substrate ERLYFQS: 0.0991
area with substrate ESLYFQS: 0.0884
area with substrate EVLYFQS: 0.0909
area with substrate EYLYFQS: 0.171

P225N
area with substrate ECLYFQS: 0.117
area with substrate EELYFQS: 0.104
area with substrate EGLYFQS: 0.104
area with substrate EHLYFQS: 0.117
area with substrate EILYFQS: 0.11
area with substrate EKLYFQS: 0.106
area with substrate EMLYFQS: 0.0846
area with substrate EQLYFQS: 0.103
area with substrate ERLYFQS: 0.0951
area with substrate ESLYFQS: 0.118
area with substrate EVLYFQS: 0.0938
area with substrate EWLYFQS: 0.102

P225Q
area with substrate ECLYFQS: 0.126
area with substrate EDLYFQS: 0.124
area with substrate EFLYFQS: 0.116
area with substrate EKLYFQS: 0.118
area with substrate ELLYFQS: 0.0907
area with substrate EMLYFQS: 0.0987
area with substrate EQLYFQS: 0.132
area with substrate EVLYFQS: 0.084
area with substrate EWLYFQS: 0.0832
area with substrate EYLYFQS: 0.103

G8Y
area with substrate EILYFQS: 0.0809
area with substrate EVLYFQS: 0.0861
